Target: T1, dopamine D2 receptor (Homo sapiens, UniProt P14416)
Assay: not given
Conditions: read-out: D2 Ki; Table 1; 0.4 nM [3H]spiperone, CHO-hD2L membranes

T1 sequence (P14416 whole entry): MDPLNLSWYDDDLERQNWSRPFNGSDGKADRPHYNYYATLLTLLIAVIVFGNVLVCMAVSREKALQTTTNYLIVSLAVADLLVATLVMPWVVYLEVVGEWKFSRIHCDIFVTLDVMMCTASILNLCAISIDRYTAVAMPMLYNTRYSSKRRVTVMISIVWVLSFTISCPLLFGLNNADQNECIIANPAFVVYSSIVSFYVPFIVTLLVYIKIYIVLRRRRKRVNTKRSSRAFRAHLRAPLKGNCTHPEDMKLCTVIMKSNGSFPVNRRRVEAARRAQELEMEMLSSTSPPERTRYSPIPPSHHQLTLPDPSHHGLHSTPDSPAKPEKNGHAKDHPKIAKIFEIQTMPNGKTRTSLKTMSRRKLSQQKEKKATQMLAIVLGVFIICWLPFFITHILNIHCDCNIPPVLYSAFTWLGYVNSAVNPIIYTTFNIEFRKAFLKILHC

First: O=C1COc2ccc(OCCCCN3CCN(c4cccc5c4CCCC5)CC3)nc2N1 [Example G8, 6-{4-[4-(5,6,7.8-Tetrahydro-naphthalen-1-yl)-piperazin-1-yl]-butoxy}-4H-pyrido[3,2-b][1,4]oxazin-3-one]
Second: COc1cccc(N2CCN(CCCCOc3ccc4c(n3)NC(=O)CC4)CC2)c1C [Example A24, 7-{4-[4-(3-Methoxy-2-methyl-phenyl)-pierazin-1-yl]-butoxy}-3,4-dihydro-1H-[1,8]naphthyridin-2-one]
The Ki of the first is 16-fold lower: 1 nM for the first, 16.5 nM for the second.

Target: T1, dopamine D2 receptor
Assay: biochemical
Conditions: D2 Ki (nM), Table 1; 0.4 nM [3H]spiperone, CHO-hD2L membranes

Cc1cc(=O)[nH]c2nc(CCCCCN3CCN(c4cccc(Cl)c4Cl)CC3)ccc12 [Example D3, 7-{5-[4-(2,3-Dichloro-phenyl)-piperazin-1-yl]-pentyl}-4-methyl-1H-[1,8]naphthyridin-2-one] and CC1(C)Cc2ccc(CCCCCN3CCN(c4cccc(Cl)c4Cl)CC3)nc2NC1=O [Example D12, 7-{5-[4-(2,3-Dichloro-phenyl)-piperazin-1-yl]-pentyl}-3,3-dimethyl-3,4-dihydro-1H-[1,8]naphthyridin-2-one] are within 1.5-fold of each other in Ki: 4.5 nM for the first, 5 nM for the second.

Going from O=c1ccc2ccc(OCCCCN3CCN(c4cccc5c(F)cccc45)CC3)nc2[nH]1 [Example B51, 7-{4-[4-(5-Fluoro-naphthalen-1-yl)-piperazin-1-yl]-butoxy}-1H-[1,8]naphthyridin-2-one] to O=c1ccc2ccc(OCCCCN3CCN(c4cc(F)cc5ccccc45)CC3)nc2[nH]1 [Example B53, 7-{4-[4-(3-Fluoro-naphthalen-1-yl)-piperazin-1-yl]-butoxy}-1H-[1,8]naphthyridin-2-one], the Ki falls from 3.5 nM to 1.1 nM (3.2-fold).

Going from Cc1cccc(N2CCN(CCCCOc3ccc4c(n3)NC(=O)CC4)CC2)n1 [Example A44, 7-{4-[4-(6-Methyl-pyridin-2-yl)-piperazin-1-yl]-butoxy}-3,4-dihydro-1H-[1,8]naphthyridin-2-one] to CCc1ccccc1N1CCN(CCCCOc2ccc3c(n2)NC(=O)CC3)CC1 [Example A35, 7-{4-[4-(2-Ethyl-phenyl)-piperazin-1-yl]-butoxy}-3,4-dihydro-1H-[1,8]naphthyridin-2-one], the Ki falls from 22.2 nM to 0.3 nM (74-fold).

Compared with CC(=O)c1cccc(N2CCN(CCCCOc3ccc4ccc(=O)[nH]c4n3)CC2)c1Cl [Example B6, 7-{4-[4-(3-Acetyl-2-chloro-phenyl)-piperazin-1-yl]-butoxy}-1H-[1,8]naphthyridin-2-one], CC(F)(F)c1ccccc1N1CCN(CCCCOc2ccc3ccc(=O)[nH]c3n2)CC1 [Example B17, 7-(4-{4-[2-(1,1-Difluoro-ethyl)-phenyl]-piperazin-1-yl}-butoxy)-1H-[1,8]naphthyridin-2-one] is 1.7-fold higher in Ki: 1 nM for the first, 1.7 nM for the second.

CC(C)Oc1cccc(N2CCN(CCCCOc3ccc4c(n3)NC(=O)CC4)CC2)c1Cl [Example A23, 7-{4-[4-(2-Chloro-3-isopropoxy-phenyl)-piperazin-1-yl]-butoxy}-3,4-dihydro-1H-[1,8]naphthyridin-2-one] and COc1cccc(N2CCN(CCCCOc3ccc4c(n3)NC(=O)CC4)CC2)c1OC [Example A19, 7-{4-[4-(2,3-Dimethoxy-phenyl)-piperazin-1-yl]-butoxy}-3,4-dihydro-1H-[1,8]naphthyridin-2-one] are within 1.5-fold of each other in Ki: 14.9 nM for the first, 19.5 nM for the second.

Going from O=C1CCc2ccc(CCCCCN3CCN(c4ccc(F)c(Cl)c4Cl)CC3)nc2N1 [Example C11, 7-{5-[4-(2,3-Dichloro-4-fluoro-phenyl)-piperazin-1-yl]-pentyl}-3,4-dihydro-1H-[1,8]naphthyridin-2-one] to O=C1CCc2ccc(OCCCCN3CCN(c4ccc(F)c(Cl)c4Cl)CC3)nc2N1 [Example A8, 7-{4-[4-(2,3-Dichloro-4-fluoro-phenyl)-piperazin-1-yl]-butoxy}-3,4-dihydro-1H-[1,8]naphthyridin-2-one], the Ki falls from 16.4 nM to 10 nM (1.6-fold). The second binds more tightly here.

Going from COc1ccc2cccc(N3CCN(CCCCOc4nc(C)c5ccc(=O)[nH]c5n4)CC3)c2c1 [Example H11, 2-{4-[4-(7-Methoxy-naphthalen-1-yl)-piperazin-1-yl]-butoxy}-4-methyl-8H-pyrido[2,3-d]pyrimidin-7-one] to Cc1cc2c(nc1OCCCCN1CCN(c3cccc4ccccc34)CC1)NC(=O)CC2 [Example E2, 6-Methyl-7-[4-(4-naphthalen-1-yl-piperazin-1-yl)-butoxy]-3,4-dihydro-1H-[1,8]naphthyridin-2-one], the Ki rises from 0.4 nM to 1.3 nM (3.2-fold). The first binds more tightly here.

First: O=C1CCc2ccc(OCCCCN3CCN(c4cccc5c(Cl)cccc45)CC3)nc2N1 [Example A75, 7-{4-[4-(5-Chloro-naphthalen-1-yl)-piperazin-1-yl]-butoxy}-3,4-dihydro-1H-[1,8]naphthyridin-2-one]
Second: CC(C)(CCCN1CCN(c2cccc3ccccc23)CC1)Oc1ccc2c(n1)NC(=O)CC2 [Example C8, 7-[1,1-Dimethyl-4-(4-naphthalen-1-yl-piperazin-1-yl)-butoxy]-3,4-dihydro-1H-[1,8]naphthyridin-2-one]
The Ki of the first is 17-fold higher: 23.8 nM for the first, 1.4 nM for the second.

Work on O=C1CCc2cc(Br)c(OCCCCN3CCN(c4cccc(Cl)c4Cl)CC3)nc2N1 [Example E7, 6-Bromo-7-{4-[4-(2,3-dichloro-phenyl)-piperazin-1-yl]-butoxy}-3,4-dihydro-1H-[1,8]naphthyridin-2-one] yielded a Ki of 6.3 nM.

Same assay, conditions: D2 Ki (nM), Table 2; 0.4 nM [3H]spiperone, CHO-hD2L membranes

First: O=c1ccc2ccc(OCCCCN3CCN(c4cccc5nccnc45)CC3)nc2[nH]1 [Example B23′, 7-[4-(4-Quinoxalin-5-yl-piperazin-1-yl)-butoxy]-1H-[1,8]naphthyridin-2-one]
Second: O=c1ccc2ccc(OCCCCN3CCN(c4cccc5cc(F)cnc45)CC3)nc2[nH]1 [Example B35′, 7-{4-[4-(3-Fluoro-quinolin-8-yl)-piperazin-1-yl]-butoxy}-1H-[1,8]naphthyridin-2-one]
The Ki of the first is 14-fold higher: 5.5 nM for the first, 0.4 nM for the second.

Compared with O=C1NCc2ccc(OCCCCN3CCN(c4cccc5c4OCCC5)CC3)nc2N1 [Example E2′, 7-[4-(4-Chroman-8-yl-piperazin-1-yl)-butoxy]-3,4-dihydro-1H-pyrido[2,3-d]pyrimidin-2-one], O=C1CCc2cnc(OCCCCN3CCN(c4cccc5c4OCCC5)CC3)cc2N1 [Example H1′, 7-[4-(4-Chroman-8-yl-piperazin-1-yl)-butoxy]-3,4-dihydro-1H-[1,6]naphthyridin-2-one] is 9.8-fold higher in Ki: 0.5 nM for the first, 4.9 nM for the second. The first binds more tightly here.

O=c1ccc2cnc(OCCCCN3CCN(c4cccc5c4OC(F)(F)O5)CC3)nc2[nH]1 [Example G7′, 2-{4-[4-(2,2-Difluoro-benzo[1,3]dioxol-4-yl)-piperazin-1-yl]-butoxy}-8H-pyrido[2,3-d]pyrimidin-7-one] and O=C1CCc2ccc(OCCCCN3CCN(c4cccc5c4OC(F)(F)O5)CC3)nc2N1 [Example A19′, 7-{4-[4-(2,2-Difluoro-benzo[1,3]dioxol-4-yl)-piperazin-1-yl]-butoxy}-3,4-dihydro-1H-[1,8]naphthyridin-2-one] are the same in Ki: 1.4 nM for the first, 1.4 nM for the second.

First: O=c1ccc2cnc(OCCCCN3CCN(c4cccc5c4OCCO5)CC3)cc2[nH]1 [Example H7′, 7-{4-[4-(2,3-Dihydro-benzo[1,4]dioxin-5-yl)-piperazin-1-yl]-butoxy}-1H-[1,6]naphthyridin-2-one]
Second: O=c1ccc2ccc(OCCCCN3CCN(c4cccc5c4CCO5)CC3)nc2[nH]1 [Example B11′, 7-{4-[4-(2,3-Dihydro-benzofuran-4-yl)-piperazin-1-yl]-butoxy}-1H-[1,8]naphthyridin-2-one]
The Ki of the first is 3.9-fold higher: 3.9 nM for the first, 1 nM for the second. The second binds more tightly here.

O=C1CCc2ccc(OCCCCN3CCN(c4cccc5ccoc45)CC3)nc2N1 [Example A23′, 7-[4-(4-Benzofuran-7-yl-piperazin-1-yl)-butoxy]-3,4-dihydro-1H-[1,8]naphthyridin-2-one] and CC1(C)Cc2cccc(N3CCN(CCCCOc4ccc5c(n4)NC(=O)CC5)CC3)c2O1 [Example A3′, 7-{4-[4-(2,2-Dimethyl-2,3-dihydro-benzofuran-7-yl)-piperazin-1-yl]-butoxy}-3,4-dihydro-1H-[1,8]naphthyridin-2-one] are within 1.5-fold of each other in Ki: 1.1 nM for the first, 1 nM for the second.

With O=c1ccc2ccc(OCCCCN3CCN(c4cccc5c4COCC5)CC3)nc2[nH]1 [Example B19′, 7-[4-(4-Isochroman-8-yl-piperazin-1-yl)-butoxy]-1H-[1,8]naphthyridin-2-one] the Ki was 1 nM.

— US7160888B2, “[1,8]naphthyridin-2-ones and related compounds for the treatment of schizophrenia” (Warner Lambert Company LLC, priority 2003, dated 2007)
